Hit rate of the full screen: of about 48,000 compounds, about 550 (1.1%) were called active. Another 4% or so got no clear call; they are omitted. No stated cut-off is given here; in the data, active means potency below about 15 µM; inconclusive means mostly about 16 µM to 33 µM; inactive means weaker than that. This is one part of the list. Where only a bound is given, the exact number is not on record here.
Potency means the concentration at half of the fitted maximal effect.

This assay deals with Lysosomal acid glucosylceramidase (Homo sapiens) (UniProt P04062). As to the kind of experiment: Glucocerebrosidase.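 Further: the screen sought inhibitors.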 Conditions: purified enzyme, resorufin glucoside fluorescence (screen aimed at inhibitors), 20 min. An outline of the steps: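 Compounds titrated against 0.2 nM normal enzyme, 30 uM resorufin beta-D-glucopyranoside substrate, citrate/phosphate buffer with taurocholate and tween-20, pH 5.9. Reaction ran 20 min at room temperature; fluorescence (Ex 548/Em 600) gave AC50.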
Sequence of UniProt P04062 (P04062 whole entry, looked up): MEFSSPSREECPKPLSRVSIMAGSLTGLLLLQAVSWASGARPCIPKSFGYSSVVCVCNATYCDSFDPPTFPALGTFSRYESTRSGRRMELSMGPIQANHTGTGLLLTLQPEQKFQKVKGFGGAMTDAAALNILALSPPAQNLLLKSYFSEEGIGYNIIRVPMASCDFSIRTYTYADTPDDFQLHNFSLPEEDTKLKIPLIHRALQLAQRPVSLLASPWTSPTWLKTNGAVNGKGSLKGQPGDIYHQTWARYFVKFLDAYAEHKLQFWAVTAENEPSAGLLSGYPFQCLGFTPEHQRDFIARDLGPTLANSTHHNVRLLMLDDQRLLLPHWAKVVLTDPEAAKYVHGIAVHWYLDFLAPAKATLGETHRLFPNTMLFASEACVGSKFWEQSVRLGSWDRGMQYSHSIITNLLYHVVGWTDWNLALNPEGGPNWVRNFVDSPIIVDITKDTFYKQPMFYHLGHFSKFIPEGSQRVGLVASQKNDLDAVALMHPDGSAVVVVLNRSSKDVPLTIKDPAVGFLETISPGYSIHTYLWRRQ
As for `CCSc1nnc(NC(=O)c2csc3c2CCCC3)s1`, the Potency was inactive: > 76.9 µM.
On to `O=C(NCc1ccccn1)c1cc(-c2ccccc2)on1`, for which the Potency is inactive: > 76.9 µM.
As to `Cc1cc(C(=O)Nc2ccc3c(c2)OCCO3)c(C)o1`, the Potency is inactive: > 76.9 µM.
Turning to `O=C(NCCCNC(=O)c1ccccn1)c1ccccn1`, the Potency is inactive: > 76.9 µM.
For `O=C(c1cccc(Cl)c1)N(Cc1cccs1)C1CCS(=O)(=O)C1` (centres undefined), the Potency was inactive: > 76.9 µM.
For `CCCn1c(=O)c2ccccc2n2c(SCCOc3ccccc3F)nnc12`, the Potency is inactive: > 76.9 µM.
`COc1cc2nc(CC(C)C)n(NC(=O)c3ccccc3)c(=O)c2cc1OC`: the Potency is inactive: > 76.9 µM.
`CC(=O)NC(O)C(=O)c1ccco1` (centres undefined): the Potency was inactive: > 76.9 µM.
As to `Cn1c(N2CCCC2)nc2c1c(=O)n(Cc1cccc(F)c1)c(=O)n2C`, the Potency is inactive: > 76.9 µM.
`COc1cc(NC(=O)Nc2cccc(Cl)c2)c(OC)cc1NC(=O)CN1CCCCC1`: the Potency was inactive: > 76.9 µM.
`O=C(Cn1ncc2c(=O)oc3ccccc3c21)N1CCCc2ccccc21`: the Potency was inactive: > 76.9 µM.
Take `CCN(CC)S(=O)(=O)c1cccc(-c2nnc(SCCOc3ccccc3)o2)c1`: the Potency was inactive: > 76.9 µM.
On to `O=C(CSc1nccn1-c1ccccc1)Nc1ccc2c(c1)OCO2`, for which the Potency is inactive: > 76.9 µM.
With `COc1ccc(N2CCN(C(=O)CSc3nnc(-c4cc5ccccc5cc4O)n3C)CC2)cc1`, the Potency is inactive: > 76.9 µM.
As to `Cc1cc(NC(=O)NC(=O)c2ccc(F)cc2F)n[nH]1`, the Potency was inactive: > 76.9 µM.
As for `CCc1c(O)nc(SCC(=O)N2CCOCC2)n(-c2ccccc2)c1=O`, the Potency is inactive: > 76.9 µM.
Consider `CCN1CCN(CCCNC(=O)c2cn(CCOC)c(=O)c3c2c2ccccc2n3C)CC1`, for which the Potency was inactive: > 76.9 µM.
With `COCc1nnc(NC(=O)CSc2ccccc2)s1`, the Potency is inactive: > 76.9 µM.
Next, `CC(=O)Nc1ccc(C(=O)Nc2ccc3c(c2)OCO3)cc1`: “inactive”; `CS(=O)(=O)N(CC(=O)N1CCN(Cc2ccccc2)CC1)Cc1ccccc1`: inactive: > 76.9 µM; `COC(=O)c1cccc(NC(=O)CSc2nnc(COc3cccc(C)c3)n2C)c1`: inactive: > 76.9 µM.
Next, `Fc1ccc(-n2c(-c3ccco3)nc3nc4ccccc4nc32)cc1`: inactive: > 76.9 µM.
For `C=CCNC(=O)CCNS(=O)(=O)c1ccc(Br)cc1`, the Potency was inactive: > 76.9 µM.
Turning to `O=C(CSCc1cnn(-c2ccccc2)c1-n1cccc1)NCc1ccc2c(c1)OCO2`, the Potency was inactive: > 76.9 µM.
With `Cn1c(NCc2cccs2)nc2ccccc21`, the Potency is inactive: > 76.9 µM.
Next, `CCOC(=O)c1oc2ccccc2c1CSc1nnc(-c2ccco2)o1`: inactive: > 76.9 µM.
On to `O=C(c1ccc(Cl)cc1Cl)C1(n2cncn2)Oc2ccccc2C1O` (centres undefined), for which the Potency was inactive: > 76.9 µM.
With `Cn1cccc1Cc1nnc(SCC(=O)NCc2ccco2)n1-c1ccc(F)cc1`, the Potency is inactive: > 76.9 µM.
Regarding `Cc1ccc2c(c1)cc(CN(CCc1ccccc1)C(=O)N1CCOCC1)c1nnnn12`, the Potency was inactive: > 76.9 µM.
In the case of `O=C(COc1ccccc1)Nc1ccccc1C(=O)NCc1ccco1` it was inactive: > 76.9 µM; in that of `O=C(CSc1nnc(Cc2cccs2)n1-c1ccccc1)NCc1ccc2c(c1)OCO2`, inactive: > 76.9 µM; in that of `O=C1CC(c2ccccc2)CC(O)=C1C=NCCN1CCN(C(=O)Nc2ccccc2)CC1` (centres undefined), inactive: > 76.9 µM.
For the compound `CC1=NC(C)Cc2ccccc21` (centres undefined), the Potency was inactive: > 76.9 µM.
With `CCc1nnc(NC(=O)CCN2C(=O)c3ccccc3C2=O)s1`, the Potency is inactive: > 76.9 µM.
With `CCCCn1nnnc1SCC(=O)Nc1ccc(F)cc1`, the Potency was inactive: > 76.9 µM.
On to `CCOC(=O)C1CCN(c2ncnc3c2oc2ccc(Br)cc23)CC1`, for which the Potency entry is “inactive”.
Consider `COC(=O)CNC(=O)Cn1ccc2ccccc2c1=O`, for which the Potency was inactive: > 76.9 µM.
In the case of `Cc1ccc(Cn2cnc3c(nnn3Cc3ccc(Cl)cc3)c2=O)cc1` it was inactive: > 76.9 µM; in that of `c1ccc(N2CCN(c3nc4ccccc4n4nnnc34)CC2)cc1`, inactive: > 76.9 µM.
For `O/N=C1/C2C3CC4C5C3C1C5C1(OCCO1)C42` (centres undefined), the Potency was inactive: > 76.9 µM.
In the case of `C=CC(O)(C#CCN(CC)CC)c1ccccc1` (centres undefined), the Potency is inactive: > 76.9 µM.
`Cc1ccc(CNC(=O)C2CCC(=O)N2C2CCCCC2)cc1` (centres undefined): the Potency was inactive: > 76.9 µM.
Next, `CC1CCc2c(nc3ncnn3c2N2CCN(c3ccccc3)CC2)C1` (centres undefined): inactive: > 76.9 µM; `O/N=C1/CCc2nonc2/C1=N/O`: inactive: > 76.9 µM; `CCOc1ccc(NCC(=O)Nc2ccc(C)cc2C)cc1`: inactive: > 76.9 µM.
For the compound `Cc1cc2nnc(SCc3ccccc3)n2c(N)n1`, the Potency was inactive: > 76.9 µM.
With `Cc1[nH]c2ccccc2c1C(=O)CN1CCSCC1`, the Potency was inactive: > 76.9 µM.
Turning to `Cc1ccc(-n2ncc(C(=O)NCc3ccc4c(c3)OCO4)c2NC(=O)c2ccco2)cc1C`, the Potency was inactive: > 76.9 µM.
Turning to `O=C(O)CCCCCNC(=O)c1ccncc1`, the Potency is inactive: > 76.9 µM.
On to `CC(=O)Nc1ccc(C(=O)OC2CCOC2=O)cc1` (centres undefined), for which the Potency is inactive: > 76.9 µM.
In the case of `O=C(CCC(=O)N1CCN(S(=O)(=O)c2ccccc2)CC1)c1cccs1` it was inactive: > 76.9 µM.
Next, `O=C1CC(c2cccc(Cl)c2)Cc2nc(N3CCOCC3)ncc21` (centres undefined): “inactive”; `Cc1cc(C)cc(NC(=O)C2CCCN(c3nccc(C)n3)C2)c1` (centres undefined): inactive: > 76.9 µM; `O=C1NC2CCCCC2NC1CC(=O)N1CCN(c2ccccc2)CC1` (centres undefined): inactive: > 76.9 µM.
With `CCOC(=O)N1CCN(c2cc(=O)n(Cc3ccc(F)cc3)c(=O)[nH]2)CC1`, the Potency was inactive: > 76.9 µM.
For `CC(=O)Nc1sc2c(c1C(=O)N1CCOCC1)CCCCC2`, the Potency was inactive: > 76.9 µM.
Consider `Nn1c(-c2cccs2)nc2sc3c(c2c1=O)CCCC3`, for which the Potency is inactive: > 76.9 µM.
With `COc1ccc(C(=O)NCC(=O)Nc2ccccc2)cc1OC`, the Potency was inactive: > 76.9 µM.
Take `N#CC1=C(SCC(=O)NCc2ccccc2)NC(=O)CC1c1ccco1` (centres undefined): the Potency is inactive: > 76.9 µM.
Next, `O=c1[nH]c(=O)n(CCOc2ccc(Cl)cc2)cc1Br`: inactive: > 76.9 µM.
Next, `Cc1cccc(NC(=O)c2cc(NC(=O)c3ccco3)ccc2Cl)n1`: inactive: > 76.9 µM; `COC(=O)c1cccc(NC(=O)Cn2cnc3c2c(=O)n(C)c(=O)n3C)c1`: inactive: > 76.9 µM.
Regarding `CC(C)OC(=O)CSc1nnc(-c2ccccn2)n1C`, the Potency was inactive: > 76.9 µM.
For the compound `N#CC1=C(N)Oc2n[nH]c(-c3cccs3)c2C1c1ccoc1` (centres undefined), the Potency is inactive: > 76.9 µM.
Consider `COc1ccc(OC)c(CNC(=O)C2CCCN(c3nc4ccccc4o3)C2)c1` (centres undefined), for which the Potency is inactive: > 76.9 µM.
On to `O=C(NCc1ccc(N2CCCC2=O)cc1)c1cnccn1`, for which the Potency was inactive: > 76.9 µM.
In the case of `COc1ccc(-c2noc(CN3CCOCC3)n2)cc1OC`, the Potency was inactive: > 76.9 µM.
For the compound `Cc1ccc(-c2nc3cc(NC(=O)C(C)C)ccc3o2)cc1C`, the Potency is inactive: > 76.9 µM.
In the case of `CC(C)NC(=O)C1CCCN(S(=O)(=O)c2cccs2)C1` (centres undefined), the Potency is inactive: > 76.9 µM.
For the compound `COC(=O)COC(=O)c1ccc(-n2nnnc2SC)cc1`, the Potency was inactive: > 76.9 µM.
Turning to `COc1cccc(OC)c1C(=O)N1CCN(Cc2ccccc2C(F)(F)F)CC1`, the Potency was inactive: > 76.9 µM.
With `CCC(C)c1ccccc1NC(=O)c1cccnc1` (centres undefined), the Potency is inactive: > 76.9 µM.
On to `COc1ccc(CN2C(=O)CN=C2Nc2cc(C)ccc2C)cc1`, for which the Potency was inactive: > 76.9 µM.
In the case of `CCc1ccccc1NC(=O)N1C2CCCC1CC(NC(=O)C(C)(C)C)C2` (centres undefined) it was inactive: > 76.9 µM.
Turning to `O=C(CN(C(=O)CCC(=O)Nc1nccs1)c1ccc2c(c1)OCO2)NCC1CCCO1` (centres undefined), the Potency is inactive: > 76.9 µM.
In the case of `CCN(CC)C(=O)c1cn(CC)c(=O)c2cc(OC)c(OC)cc12`, the Potency is inactive: > 76.9 µM.
Regarding `COc1cc2c(cc1OC)C(c1cccc(OC)c1OC)CC(=O)N2` (centres undefined), the Potency is inactive: > 76.9 µM.
Consider `Cc1ccc(N2CC(C(=O)Nc3ccncc3)CC2=O)cc1` (centres undefined), for which the Potency is inactive: > 76.9 µM.
With `COc1cc(C2C3=C(CC(C)(C)CC3=O)N(C)C(=O)N2C)cc(OC)c1OC` (centres undefined), the Potency is inactive: > 76.9 µM.
Consider `O=C(Nc1ccccc1C(F)(F)F)c1cc(-c2ccccc2O)on1`, for which the Potency is inactive: > 76.9 µM.
Turning to `CCOc1ccccc1C1C(C(=O)Nc2ccccc2OC)=C(C)Nc2nnnn21` (centres undefined), the Potency was inactive: > 76.9 µM.
For `O=C(O)Cn1c(CC(=O)N2CCCC2)nc2ccccc21`, the Potency is inactive: > 76.9 µM.
Consider `CC(C)Sc1nc(SCC(=O)NCc2ccco2)c2c3c(sc2n1)COC(C)(C)C3`, for which the Potency is inactive: > 76.9 µM.
As for `CS(=O)(=O)c1ccc2nc(NC(=O)CN3CCCCCC3)sc2c1`, the Potency was inactive: > 76.9 µM.
Turning to `CC1=CC(C)(C)N(C(=O)c2ccc(F)cc2)c2cc3c(cc21)OCO3`, the Potency is inactive: > 76.9 µM.
Turning to `CCN1CCCC1CNC(=O)CSc1cc(=O)n(CC)c2ccccc12` (centres undefined), the Potency was inactive: > 76.9 µM.
For the compound `COc1cc(NC(=O)N[C@H](C(=O)O)C(C)C)cc(OC)c1`, the Potency is inactive: > 76.9 µM.
For the compound `CCCCOc1ccc(-c2nnc(-c3ccco3)o2)cc1`, the Potency was inactive: > 76.9 µM.
In the case of `CN(C)CCCNC(=O)c1ccc(-c2ccccc2)cc1` it was inactive: > 76.9 µM; in that of `COc1ccccc1CNC(=O)CSc1nc(-c2ccccc2)cn1N`, inactive: > 76.9 µM; in that of `COc1ccc(-c2cc(C(=O)N3CCCCC3)no2)cc1OC`, inactive: > 76.9 µM.
Turning to `COc1ccc(CC(=O)OCC(=O)NC(=O)NC2CCCCC2)cc1`, the Potency is inactive: > 76.9 µM.
Next, `COc1ccc(N2C(=O)CC(N3CCC(C(N)=O)CC3)C2=O)cc1` (centres undefined): inactive: > 76.9 µM; `O=C(c1ccco1)N1CCN(C(=O)C2c3ccccc3Oc3ccccc32)CC1`: inactive: > 76.9 µM.

Source of the values: PubChem BioAssay AID360 (National Center for Advancing Translational Sciences (NCATS), 2006).
